One data set concerns the target T1, rhEphA5 antigen (Homo sapiens, UniProt P54756).
T1 construct: purchased R and D systems 3036-A5
Briefly: kd (1/s). On the procedure: Table printed on a drawing sheet, FIG. 13
Head of the field: kd (1/s)
The patent's description of the figure: FIG. 13 is a table illustrating the single cycle kinetic parameters of chimeric (VH0/VK0) and humanized 11C12 variants (tested as cell culture supernatants) binding to rhEphA5 antigen as determined using the Biacore T200. The relative KD was calculated by dividing the KD of the humanized variant by that of the VH0/VK0 (top row) assayed in the same experiment. The variants marked with ‘*’ have KD values that are within two-fold of, or are better than, the chimeric antibody. The chimeric and selected variants marked in ‘#’ were identified as the main leads for purification. […]
Where the first naming reader finds the target: description_of_the_figure: humanized 11C12 variants (tested as cell culture supernatants) binding to rhEphA5 antigen as determined using the Biacore T200

Data set [1] can be described thus: Body weight and tolerability of PDX-bearing mice before and after treatment.
Data set [2] relates to PDX model TM00096 (BR085F), triple negative breast cancer. Briefly: PDX TM00096 efficacy. In kind it is in vivo, mice. Particulars: TM00096. Here is the method:
Test Animals. The present studies were performed using female NSG™ mice implanted with the PDX model TM00096 (BR085F) purchased from Jackson Laboratories. These mice are extremely immunodeficient and carry two mutations: severe combined immune deficiency (scid) and a complete null allele of the IL2 receptor common gamma chain (IL2rg^null). The scid mutation is a mutation in the DNA repair complex protein Prkdc and renders the mice B and T cell deficient. The IL2rg^null mutation prevents cytokine signaling through multiple receptors, leading to a deficiency in functional NK cells. This severe immunodeficiency allows the implantation of patient derived xenografts (PDX) and growth of human tissue-based tumors in the mice. These tumors have similar characteristics to the human tumors from which they are derived (e.g., gene expression) and are predictive of human response to therapeutic agents. The initial and final diagnosis of the patient from which the model was derived was invasive ductal carcinoma AJCC IIA/Grade 3. The primary site of the tumor was breast, sample for implantation was obtained from the metastatic site (lung). The tumor was not treatment naïve. The patient from which the sample was derived was a person. The sample was obtained by surgical resection. The host strain of the sample for engraftment was NOD.Cg-Prkdc^scid Il2rg^tm1Wj1/SzJ (aka NSG or NOD Scid gamma).
Mice received 5 weekly doses of ADC1 or ADC2, or 4 weekly doses of ADC3 or ADC4 at 10 mg/kg or PBS via tail vein injection. Animals were dosed on days 0, 7, 14, 21 and 28 followed by 2 weeks of observation (day 28-40) without treatment (or until cessation of study). The number of mice used per group averaged n=7-10 with some mice presenting with more than 1 tumor implanted subcutaneously. In those cases, each tumor size was measured and recorded independently. Measurements were performed 2-3 times weekly with the aid of a digital caliper (Fisherbrand™ Traceable™ Digital Carbon Fiber Calipers). Studies lasted an average of 40 days or until maximum allowed tumor volume was reached and/or skin ulceration was noted. All studies included a control group of an equal number of mice to those in the treatment group. Control groups received PBS tail vein injections and were submitted to the same handling procedures as TA treated mice. First treatment was administered when tumors reached 100-150 mm3 volume.

In data set [3] the test system is PDX model TM00226 (LG1179F), lung adenocarcinoma. The experiment in a line: PDX TM00226 efficacy. In kind it is in vivo, mice. Here is the method: The present studies were performed using female NSG™ mice implanted with the PDX model TM00226 (LG1179F) purchased from Jackson Laboratories. These mice are extremely immunodeficient and carry two mutations: severe combined immune deficiency (scid) and a complete null allele of the IL2 receptor common gamma chain (IL2rg^null). The scid mutation is a mutation in the DNA repair complex protein Prkdc and renders the mice B and T cell deficient. The IL2rg^null mutation prevents cytokine signaling through multiple receptors, leading to a deficiency in functional NK cells. This severe immunodeficiency allows the implantation of PDX and growth of human tissue-based tumors in the mice. These tumors have similar characteristics to the human tumors from which they are derived (e.g., gene expression) and are predictive of human response to therapeutic agents.
Mice received 5 weekly doses of ADC1 or ADC2 at 10 mg/kg or PBS via tail vein injection. Animals were dosed on days 0, 7, 14, 21 and 28 followed by 3 weeks of observation (day 28-50) without treatment. The number of mice used per group averaged n=7 with some mice presenting with more than 1 tumor implanted subcutaneously. In those cases, each tumor size was measured and recorded independently. Measurements were performed 2-3 times weekly with the aid of a digital caliper (Fisherbrand™ Traceable™ Digital Carbon Fiber Calipers). Studies lasted on average 50 days or until maximum allowed tumor volume was reached and/or skin ulceration was noted. All studies included a control group of an equal number of mice to those in the treatment group. Control groups received PBS tail vein injections and were submitted to the same handling procedures as ADC1 and ADC2 treated mice. First treatment was administered when tumors reached 100-150 mm^3 volume.

Consider two molecules from patent publication US12662541B2, “Antibody-drug conjugates against the receptor tyrosine kinase EphA5” (Rutgers, The State University of New Jersey, priority 2021, dated 2026).

“Also recorded” adds a separate entry of the source.

T1 sequence (P54756 25-1037 limits assumed): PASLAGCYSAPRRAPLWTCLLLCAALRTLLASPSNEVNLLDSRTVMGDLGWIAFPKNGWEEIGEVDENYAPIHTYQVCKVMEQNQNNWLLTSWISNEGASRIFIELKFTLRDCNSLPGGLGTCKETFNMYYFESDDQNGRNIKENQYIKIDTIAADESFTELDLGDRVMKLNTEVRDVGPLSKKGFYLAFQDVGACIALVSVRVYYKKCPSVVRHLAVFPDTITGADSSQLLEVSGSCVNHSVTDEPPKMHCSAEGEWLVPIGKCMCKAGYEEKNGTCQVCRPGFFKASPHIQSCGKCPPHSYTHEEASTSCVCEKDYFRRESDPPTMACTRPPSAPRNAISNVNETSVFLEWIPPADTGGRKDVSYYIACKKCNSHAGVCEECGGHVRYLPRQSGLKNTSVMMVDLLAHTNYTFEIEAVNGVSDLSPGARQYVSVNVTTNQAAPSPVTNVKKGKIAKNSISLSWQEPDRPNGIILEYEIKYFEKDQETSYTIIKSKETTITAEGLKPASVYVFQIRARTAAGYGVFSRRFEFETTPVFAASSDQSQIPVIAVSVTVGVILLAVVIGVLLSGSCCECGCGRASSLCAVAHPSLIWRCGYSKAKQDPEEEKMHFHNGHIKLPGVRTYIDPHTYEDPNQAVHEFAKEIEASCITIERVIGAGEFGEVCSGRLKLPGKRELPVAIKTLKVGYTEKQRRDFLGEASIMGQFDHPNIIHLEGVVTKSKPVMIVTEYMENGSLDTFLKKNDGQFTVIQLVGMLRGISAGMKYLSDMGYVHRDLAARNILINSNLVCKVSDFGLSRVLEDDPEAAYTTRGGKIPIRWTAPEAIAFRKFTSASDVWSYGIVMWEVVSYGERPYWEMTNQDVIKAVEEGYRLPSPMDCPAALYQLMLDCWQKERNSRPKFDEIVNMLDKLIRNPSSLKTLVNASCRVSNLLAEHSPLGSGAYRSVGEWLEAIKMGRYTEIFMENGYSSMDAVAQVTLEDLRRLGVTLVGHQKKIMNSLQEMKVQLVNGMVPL

B1: VH5/VK3: humanized anti-EphA5 IgG1/kappa antibody, heavy chain SEQ ID NO:39, light chain SEQ ID NO:40 (antibody)
heavy: EVQLVESGGGLVQPGGSLKLSCAASGFTFSTFGIHWVRQAPGKGLEWVAYISGASTTIYYADSVKGRFTISRDNSKNTLYLQMNSLRAEDTAVYYCARYGTSFPYGLDYWGQGTLVTVSSASTKGPSVFPLAPSSKSTSGGTAALGCLVKDYFPEPVTVSWNSGALTSGVHTFPAVLQSSGLYSLSSVVTVPSSSLGTQTYICNVNHKPSNTKVDKRV[letters of human IgG1 Fc left out]
light: DIVMTQSPDSLAVSLGERATINCKASQSVDYDGDSYMNWYQQKPGKAPKLLIYGASNLESGIPDRFSGSGSGTDFTLTISRLEPEDAAVYYCQQSNEDPFTFGQGTKLEIKRTVAAPSVFIFPPSDEQLKSGTASVVCLLNNFYPREAKVQWKVDNALQSGNSQESVTEQDSKDSTYSLSSTLTLSKADYEKHKVYACEVTHQGLSSPVTKSFNRGEC
With B1, the “kd” value with rhEphA5 antigen worked out at 0.0014 s⁻¹.

B2: VH5Vk3-ThioBridge®-VCP-MMAE (conjugate)
heavy: EVQLVESGGGLVQPGGSLKLSCAASGFTFSTFGIHWVRQAPGKGLEWVAYISGASTTIYYADSVKGRFTISRDNSKNTLYLQMNSLRAEDTAVYYCARYGTSFPYGLDYWGQGTLVTVSSASTKGPSVFPLAPSSKSTSGGTAALGCLVKDYFPEPVTVSWNSGALTSGVHTFPAVLQSSGLYSLSSVVTVPSSSLGTQTYICNVNHKPSNTKVDKRV[letters of human IgG1 Fc left out]
light: DIVMTQSPDSLAVSLGERATINCKASQSVDYDGDSYMNWYQQKPGKAPKLLIYGASNLESGIPDRFSGSGSGTDFTLTISRLEPEDAAVYYCQQSNEDPFTFGQGTKLEIKRTVAAPSVFIFPPSDEQLKSGTASVVCLLNNFYPREAKVQWKVDNALQSGNSQESVTEQDSKDSTYSLSSTLTLSKADYEKHKVYACEVTHQGLSSPVTKSFNRGEC
As to B2, the “change in body weight before and after treatment” value is listed as “no significant changes in body weight; also recorded: no significant differences in body weight” in data set [1] (TM00096-bearing mice, 10 mg/kg weekly, ADC2 = VH4Vk3-ThioBridge-VCP-MMAE, listed as ADC1, 10 mg/kg); “no significant changes in body weight; also recorded: did not show significant changes in body weight” in data set [1] (TM00098-bearing mice, ADC2 = VH5Vk3-ThioBridge®-VCP-(SN-38)2, listed as ADC1); “no significant changes in body weight; also recorded: did not show significant changes in body weight” in data set [1] (TM00188-bearing mice, ADC2 = VH5Vk3-ThioBridge®-VCP-(SN-38)2, listed as ADC1); “no significant changes in body weight; also recorded: did not show significant changes in body weight” in data set [1] (TM00219-bearing mice, ADC2 = VH5Vk3-ThioBridge®-VCP-(SN-38)2, listed as ADC1); “no significant changes in body weight; also recorded: did not show significant changes in body weight” in data set [1] (TM00226-bearing mice, ADC2 = VH5Vk3-ThioBridge®-VCP-(SN-38)2, listed as ADC1). The tolerability entry in data set [1] (TM00098-bearing mice, 10 mg/Kg weekly for 5 doses, ADC2 = VH5Vk3-ThioBridge®-VCP-(SN-38)2) was “well tolerated for both ADC1 and ADC2, and no toxicity or weight loss was observed”. The “tumor response (tumor volume)” value is “full and sustained regression of tumors” in data set [2] (10 mg/kg weekly tail vein, 5 doses (ADC1, ADC2) or 4 doses (ADC3, ADC4), here ADC2 = VH4Vk3-ThioBridge-VCP-MMAE); “sustained regression of tumors” in data set [3] (5 weekly doses of 10 mg/kg tail vein, ADC2 = VH5Vk3-ThioBridge®-VCP-(SN-38)2). For the same molecule, the “tumors remaining at the end of the study” value is “Eight” in data set [2] (ADC2 = VH4Vk3-ThioBridge-VCP-MMAE) and “Seven” in data set [3]. In addition, the tumors regressed completely came out at 4 tumors in data set [2] (of 12 tumors (ADC1), of 10 tumors (ADC2 = VH4Vk3-ThioBridge-VCP-MMAE)) and 1 tumors in data set [3] (of a total of 8 tumors).
